# In the RNAGym collection of RNA variant scans (doi:10.1073/pnas.2313332121):
# Variants at the floor of the assay are shown more often than the library holds them.
# B1: TPR 5TU (parent)
# chain: GGAUCUUCUCGAUCUAACAAAAAAGACAAAUCUGCCACAAAGCUUGAGAGCAUCUUCGGAUGCAGAGGCGGCAGCCUUCGGUGGCGCGAUAGCGCCAACGUUCUCAACUAUGACACGCAAAACGCGUGCUCCGUUGAAUGGAGUUUAUCAUG
# Variants of: B1
# Assay: polymerase ribozyme fitness, log enrichment relative to wild type (log ratio); higher = more active; in vitro selection for triplet polymerase activity
# Procedure, shortened: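 PCR was used to build mutant libraries for each subunit of a heterodimeric triplet polymerase ribozyme, which were then transcribed. A single in vitro selection round, in triplicate, used a frozen incubation at −7 °C and recovered extended constructs by gel excision, streptavidin beads and RT-PCR. Fitness is the logarithm of genotype enrichment relative to wild-type enrichment, averaged over replicates with inverse-variance weights. The logarithm is base 2, and after Illumina sequencing only genotypes with ≥10 input reads and ≥1 read per output were kept.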
row,Variant,polymerase ribozyme fitness (log ratio)
1,A12G G34U C93U U144A U151G,≤ -4.2
2,A12U U82C G94C C108A A110G A113G G140U,≤ -4.2
3,U13A U15C A26C C93A,-3.05
4,U13C A29U G34A A39C U77G G80C U139C U144A G152U,≤ -4.2
5,A12U A30G A47G U61A C69G U78G U145G,≤ -4.2
6,A12U G58A C85G A106G A137U A150C,≤ -4.2
7,A12U A17U A39C A41C U111G,≤ -4.2
8,U13C U45A G88C U134A G140U C149U,≤ -4.2
9,A12G C87A G88C C96U,≤ -4.2
10,U13C C79G G86U C99G C103A G136C A137C G143A,≤ -4.2
11,A12G U44A,≤ -4.2
12,A12U A23G G42C A60G G68A C79G C93U G141C,≤ -4.2
13,U13C C72A A73U C87U G141U,≤ -4.2
14,A12G G42C G92A C118U C123A,≤ -4.2
15,A12U G50A C63G C76A C93U C125U U127G,≤ -4.2
16,A12G U44A U45G A49C G50C A52G U53A C57U G84U G133U U139A,≤ -4.2
17,U13C C76U U90C U130A U135G U139A,≤ -4.2
18,U13A C27G G84A,≤ -4.2
19,U13C A30U C36G C51U U55A C87A G126U,≤ -4.2
20,A12U C14U A17U G59A C93U A122U G143C,≤ -4.2
21,A12U A47G C118G,-1.11

row,Variant,polymerase ribozyme fitness (log ratio)
1,U13A C76G U90C G92U A97C U144C,≤ -4.2
2,A12U G25A A41C G65A U77G G126A,≤ -4.2
3,U13A G25A C51G A60G C85A C125A,≤ -4.2
4,U13A C76U G80U G84U C85G C118A,≤ -4.2
5,A12G G65C G94A G136U G143U,≤ -4.2
6,A12U A20C C54G G86U A97G A107G A137C C149G,≤ -4.2
7,A12U A37C C95G C123A G143U,≤ -4.2
8,U13A C36A U55G C93G,≤ -4.2
9,A12U A17C U44A G58A U78G C87G A106U A121U,≤ -4.2
10,A12U C93U A97U C103U C105U G133U,≤ -4.2
11,A12U A22U C27U A40G C69A U78A G94A A115C A119U G124A,≤ -4.2
12,A12U A89U G94U C108G C118U A120C A122C A137C,≤ -4.2
13,A12U U55A G141A,-1.32
14,U13A A23U G59A C87U,≤ -4.2
15,A12U C51U C54U C87G A138G,≤ -4.2
16,U13G A17U A21G A22G G50C G59A G70C C72U C125G,≤ -4.2
17,U13A C32G A37U A52G G94A G128A U146G,≤ -4.2
18,U13C A39U U56A G86A C87U,≤ -4.2
19,U13C C14G A29U G74C A98G G141A G143U,≤ -4.2
20,A12U C18G C63G G83U U111G,≤ -4.2
21,U13A A20U C35A G50A G83C C118G A119U C132U,≤ -4.2

row,Variant,polymerase ribozyme fitness (log ratio)
1,A12U U56G A89G C93A A113G,-3.89
2,A12U U55G U56G C79A C96U A113G G117A,≤ -4.2
3,A12U C14G C27A G67C C87U A137C G152C,≤ -4.2
4,A12U A22U U45A U53A U77C C125A G141C,≤ -4.2
5,U13A A52U U135C,≤ -4.2
6,U13C U104G,-1.57
7,A12U A16C A28G A40C C93U C99A C125U,≤ -4.2
8,U13C U78G C85A C116U,≤ -4.2
9,A12U C38U G83A U101C G141U G152U,≤ -4.2
10,A12U C32U C75G U111C,≤ -4.2
11,U13A A20G A28G G48A U146C,≤ -4.2
12,U13A U56G C79A C93A,≤ -4.2
13,A12U C85A,-1.85
14,A12G G46A A49C G58A G88C C95A C108G,≤ -4.2
15,A12G G34U U55A G59U C96G G126A,≤ -4.2
16,U13A C35U C85A A137U U151G,≤ -4.2
17,U13C A29G C35U A52G C54U G59U G70A U78C G80C G136A,≤ -4.2
18,A12U A20C A39G G50U A64U G86A A91C A119U,≤ -4.2
19,U13A U44A G94U A115U,≤ -4.2
20,A12U G46A A91U C93U C132A,≤ -4.2
21,A12G G88C,-3.71

row,Variant,polymerase ribozyme fitness (log ratio)
1,A12U A23G U56A C85G G117C,≤ -4.2
2,A12G C96G U102C A121G G141A A150G,≤ -4.2
3,A12U A22G A24U C57A U77G G81U C99U G143A,≤ -4.2
4,A12U C36A A64U G86A U111G,≤ -4.2
5,A12G G65C,≤ -4.2
6,A12U C27A A52C G71C C105U,≤ -4.2
7,U13A A17U U31G G59A C95U A110U G140U G141U,≤ -4.2
8,U13A A20U A22U G48C U55G C99A C114G U139A,≤ -4.2
9,A12U U109G,-2.25
10,U13C U31G C32G C76U C131G,≤ -4.2
11,U13C A20U A47G U56G C85A G88U A147U,≤ -4.2
12,A12U A28U C32G G42C A49C G50C U145A U146G,≤ -4.2
13,A12U U15A A21U U55A C76U C79A A121U,≤ -4.2
14,U13C U55A A64U C85U,≤ -4.2
15,A12U A23U U45C A97G A98U C131G C132U,-4.12
16,U13C C32A A49C,≤ -4.2
17,A12U U33A C35G C57A U77C U101C U134A,≤ -4.2
18,U13A C43U C54G C72U G88C A142U U146A,≤ -4.2
19,A12U C32G G100A C129A U144G,≤ -4.2
20,U13C C93U U134A,-3.08
